The source of these data is article PMC10668032.

The list shows a part of the results. At the low end of the ranking, values are background and their order means little.

The target of this test is SIX1-Q177R homeodomain (UniProt Q15475). Kind of test: universal protein binding microarray. The settings on record: Universal all-10-mer PBM (8x60K, AMADID 030236), 300 nM GST-tagged protein, Alexa Fluor 488 anti-GST; buffer, salt, pH and temperature not stated; high values mean tight binding; most listed sequences are background and not binding sites; double strand, one strand shown.
For TGATGCAA, the binding signal is -0.213 E-score. With CTACATAG, the binding signal was -0.153 E-score.

Consider ACATTAAG, for which the binding signal was -0.0981 E-score. To AACGACTC belongs 0.128 E-score; to CTTCTCCA, -0.232 E-score; to CGGATTCC, 0.124 E-score. To CCGGGCTC belongs -0.00791 E-score. Next, GGCCCACC: -0.146 E-score; AGGGTTGC: -0.114 E-score. For the sequence ACCTTGAG, the binding signal is -0.0157 E-score. To CCTGCAAC belongs 0.0553 E-score; to ATAGAGTG, 0.135 E-score; to TCCGGGCA, -0.0199 E-score.

Consider CGATGGAA, for which the binding signal is -0.168 E-score. To AACTAATA belongs -0.0757 E-score. Next, CATCGCCG: 0.0345 E-score. On to AATGTGGA, for which the binding signal was -0.084 E-score. Next, ATAGACAA: 0.00567 E-score; ATAATCGA: 0.0378 E-score. Next, ACTTAGAG: 0.0563 E-score.

Consider AAACCACA, for which the binding signal was found to be 0.216 E-score. To ATTATCGG belongs 0.0376 E-score; to AGAAATTC, -0.0218 E-score; to GATATGCC, -0.26 E-score. To ACAGACGA belongs 0.0172 E-score; to AGGTAGGA, -0.0607 E-score; to CTCTTCGA, -0.166 E-score. To CAACTTAA belongs -0.221 E-score; to CTGACCTC, 0.048 E-score; to ATCCTAAT, -0.247 E-score. As to AATTAGTC, the binding signal was -0.04 E-score.

In the case of TCAACGGA, the binding signal is -0.0392 E-score. Next, TCGATCAA: -0.216 E-score. As to AGACAGTA, the binding signal was -0.088 E-score. Next, CGATCTTC: -0.134 E-score; GCAACACA: 0.14 E-score; CCCCACTC: 0.18 E-score.

AGAACTAG: the binding signal was -0.155 E-score.

On to AGCGTCAC, for which the binding signal was 0.0987 E-score. To GCCCATAC belongs 0.07 E-score; to ATAGGATC, -0.02 E-score; to ATGTTACA, 0.177 E-score.

For the sequence CCCCTGCG, the binding signal was 0.0624 E-score. GAACGACC: the binding signal is -0.0817 E-score. For ATGTAATG, the binding signal is -0.2 E-score. Next, GATAACCC: 0.19 E-score. To GCCCCGGC belongs -0.0482 E-score. GACGAACC: the binding signal is -0.129 E-score. Next, AAGTCTAT: -0.245 E-score; CCCAGAGC: -0.0687 E-score. To CCATGCCG belongs -0.0786 E-score.

As for AAGCGGTG, the binding signal was determined as 0.214 E-score.

On to GACACATA, for which the binding signal amounted to 0.234 E-score. Next, CTGCACAG: -0.149 E-score; GACTTTGC: -0.248 E-score; GTATGGCA: -0.17 E-score. To AGACACAT belongs 0.0906 E-score; to ACCGTCGG, 0.0295 E-score; to AGGTTGGA, -0.0478 E-score. On to GACCGGTA, for which the binding signal was -0.057 E-score. Next, ACAAATAA: -0.0921 E-score; CCTATCAA: -0.0763 E-score. Regarding ACCTCTAC, the binding signal was found to be 0.151 E-score. As for CATAAACG, the binding signal is -0.0362 E-score.

Regarding ATTGTGAC, the binding signal was determined as 0.119 E-score.

As for GCCAAGGC, the binding signal is -0.161 E-score. Next, GATGTCGC: -0.29 E-score; GCTATGCA: -0.0598 E-score. With CCCACTAA, the binding signal turned out to be 0.124 E-score.

For AAGGAAAA, the binding signal is -0.211 E-score. Next, CATATCTC: -0.228 E-score; CCCGCCAG: 0.024 E-score; ATGTCTAC: 0.0116 E-score. Next, AAGAGCTT: 0.0548 E-score; CGACGAGC: -0.138 E-score; GGGTCAAC: 0.223 E-score. To CTACTCCA belongs 0.242 E-score; to CGTGGCAC, 0.0589 E-score.

In the case of AGGCTATG, the binding signal worked out at 0.017 E-score. To ACGAAACT belongs -0.108 E-score; to CTCTGTTC, -0.0889 E-score; to ATAGGCAC, -0.106 E-score.

Turning to AAATACTG, the binding signal is -0.201 E-score.

Consider GGACCATA, for which the binding signal is -0.238 E-score. To TCGCGAAA belongs -0.105 E-score. To GACTGATA belongs 0.045 E-score; to CTCTGGCC, 0.0156 E-score. For AGCGCGCG, the binding signal was -0.103 E-score.

Turning to AGCACCCA, the binding signal turned out to be 0.159 E-score.

On to AGCCCAGG, for which the binding signal is -0.29 E-score.

As to CAAAAGGC, the binding signal was -0.329 E-score. To GCCGCCCC belongs 0.066 E-score; to GGCGCTAA, -0.201 E-score; to GCATCCCA, -0.258 E-score. To ACCACTCT belongs 0.0376 E-score. Next, ACTGAGTA: -0.16 E-score. For the sequence CTTGTGAC, the binding signal is -0.0696 E-score. Next, CTATTACA: 0.215 E-score. Next, ACAGCCAA: -0.166 E-score; AACTAACC: -0.0214 E-score; AGGGAGCC: -0.108 E-score. To AAAGAAGA belongs -0.0713 E-score; to AAGCATGT, -0.229 E-score; to CAACGCGA, -0.0722 E-score.

On to TAGGCTCA, for which the binding signal was -0.223 E-score. For the sequence AGAATCAC, the binding signal was -0.117 E-score. As for CACATAAG, the binding signal is -0.112 E-score. To GGCTTAAC belongs 0.0735 E-score. For the sequence AAAACTCA, the binding signal was -0.155 E-score. Regarding GTCGGACA, the binding signal was 0.101 E-score.

Regarding ATCTCGCA, the binding signal is -0.00201 E-score. With GCAATCCA, the binding signal is -0.158 E-score. Next, CGCTGATA: 0.111 E-score; AGGTTCAA: 0.0388 E-score; CATCGCGA: -0.11 E-score. As for AGAACCAC, the binding signal was -0.121 E-score. Next, AAACTGAA: -0.164 E-score; CTATGGCA: -0.0793 E-score; GACCTACC: 0.0321 E-score. In the case of AGTATATA, the binding signal was 0.119 E-score.

On to CATAGGGA, for which the binding signal is 0.0903 E-score.

Consider CAGTCATG, for which the binding signal was -0.143 E-score. AATATCTA: the binding signal is -0.245 E-score. Next, CTTAGCTC: -0.0536 E-score; CGATGCAC: -0.0447 E-score. To CGTGACGA belongs -0.112 E-score; to AGATAGGG, -0.0624 E-score.

GCGATAGC: the binding signal is -0.288 E-score.

Turning to GATTGGCA, the binding signal is -0.0742 E-score.

As to GAAATGGC, the binding signal was -0.294 E-score. Next, ATGAGGCG: -0.012 E-score; ACCAGAAA: 0.0552 E-score. To CTCGCCAC belongs 0.0837 E-score; to AGGTTCTG, -0.103 E-score. To CGATTCTA belongs -0.136 E-score. As to ATTAAGAA, the binding signal is -0.167 E-score. Next, AGTCTCGA: 0.00588 E-score; GTCAAATA: -0.1 E-score; CTCGACAA: -0.174 E-score. As for CCTCTGAG, the binding signal turned out to be 0.0637 E-score. To AAAAGGCG belongs -0.195 E-score. To AGGTCACA belongs 0.0031 E-score; to AGGAGGAC, 0.0214 E-score; to AGAAGGCA, -0.166 E-score. To CACCCGTA belongs 0.274 E-score; to TAAACCGA, -0.0276 E-score.

Take AGTTCAGC: the binding signal is -0.0777 E-score. To GCGGATCC belongs 0.0909 E-score; to CCCTCTAG, 0.0327 E-score; to CTTGGGAA, -0.232 E-score.

As to CACCAGGC, the binding signal came out at 0.336 E-score. Next, GCTGTTCC: -0.23 E-score; AACTCACA: 0.174 E-score. Next, ATAGCCAA: -0.0885 E-score; AGTGCTCC: -0.122 E-score; CCTCCGTC: -0.0215 E-score. Next, AAAGGGCA: -0.152 E-score; CCCCGCTA: 0.199 E-score; CTTCATTA: -0.146 E-score.

Regarding CTACGAAC, the binding signal worked out at 0.0786 E-score.

As for CTCCGTAA, the binding signal was -0.0605 E-score. On to CAAAGTTA, for which the binding signal was -0.178 E-score. Next, CGACTTCA: -0.124 E-score; CACCTCAA: 0.173 E-score; AGCACGCG: -0.0022 E-score. To ACCTACTA belongs 0.0436 E-score; to CATCGAAA, -0.0904 E-score; to ACTACCAG, 0.0534 E-score.

As for CCCAATAC, the binding signal amounted to 0.17 E-score.

On to AAAGGCTG, for which the binding signal was 0.024 E-score. To GACGACGA belongs -0.18 E-score; to CATGAACC, 0.0431 E-score.

AGAGCTAG: the binding signal is -0.115 E-score. To CCAAACAG belongs 0.103 E-score. To CCATTCGG belongs -0.00211 E-score; to CCATTTTC, -0.282 E-score.

Take CCCAAAAA: the binding signal was -0.0298 E-score. To CCGGCGCA belongs -0.00329 E-score; to AAGTGTGG, 0.169 E-score. To CAGACCAC belongs -0.0711 E-score. In the case of ATCATTAG, the binding signal is -0.0688 E-score. To CAGCTTTC belongs -0.177 E-score; to CCCGCCTC, -0.00224 E-score.

For the sequence AGTTATCC, the binding signal was 0.139 E-score. Next, CAAGGTGG: 0.128 E-score.

For AAGCAGGA, the binding signal was determined as 0.0105 E-score. To GCGTTTAA belongs -0.0771 E-score; to CGTTGATA, 0.113 E-score; to CGGCGAGA, -0.183 E-score. As for TCACTGCA, the binding signal was -0.0896 E-score. As for CTAGAGCC, the binding signal was -0.245 E-score. Next, ACTGCACA: 0.0701 E-score; CGTAAACC: 0.115 E-score; AAGACCAT: -0.308 E-score. To GGATGGGA belongs 0.0747 E-score. ACCCGATC: the binding signal stood at 0.253 E-score. Next, ACAGACTA: -0.251 E-score; CCGACGCG: 0.152 E-score. As for CAGCCGTA, the binding signal turned out to be 0.0129 E-score. Next, CTTAATAC: 0.0914 E-score. Consider ACCATTAG, for which the binding signal came out at 0.138 E-score. For the sequence ATCTTGGG, the binding signal is 0.0195 E-score. Take AAGGGTCT: the binding signal was -0.209 E-score. On to GGGGGCGA, for which the binding signal worked out at 0.0949 E-score. AATAGCTA: the binding signal is -0.173 E-score. Take GTAGAGAA: the binding signal is -0.0335 E-score. Next, TAATTGAA: -0.109 E-score. To AATGTAAC belongs -0.0605 E-score. For the sequence TATATCGA, the binding signal was -0.0963 E-score. To GCACAAGC belongs 0.0534 E-score. For the sequence ATCATTTG, the binding signal was -0.0912 E-score. To GCCTCATA belongs -0.332 E-score; to GGACACAC, 0.382 E-score; to CGGCGCGC, -0.024 E-score. Next, AGATGCAA: -0.124 E-score; GAAAGATA: -0.0527 E-score.

With AGATTTAC, the binding signal turned out to be 0.0262 E-score. To AATCAGGG belongs 0.11 E-score; to TGCTGAAA, 0.0355 E-score.
